± gives the standard deviation of the averaged measurements. Some of the results follow.
test system: PfAP2-EXP AP2 domain (GST-tagged); assay: gcPBM binding intensity (ln(normalized median fluorescence intensity)); higher = stronger DNA binding
In short: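 GST-fused DNA-binding domains of P. falciparum, expressed in E. coli, were applied at about 25 μg on average for 1 h to an Agilent 4 × 180k array of primer-extended double-stranded 36-bp intergenic genomic probes and negative controls. Binding intensity is the highest Masliner-normalised natural-log median intensity across replicate spots of either probe orientation, measured with Alexa488 anti-GST antibody and a 488 nm scan.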

Sequence	gcPBM binding intensity (ln)
ATATATATAGAAATATGTACGAAAAAAATATCACAT [XGTACX_site746]	8.88 ± 0.73
AAAATCAAAAAAACAAGTACAAATGTGGACTTTTTT [XGTACX_site5363]	8.41 ± 0.29
TGTTCTATGGTTTGTAGTACTTTAATAAATATAAAT [XGTACX_site7823]	8.79 ± 0.33
TCAAAAAAAAAAAAAAAAAAAAAAAAAAAAAAAAAA [CACACA_negctrl_site1753]	8.04 ± 0.22
AATAAGCTCACGTGTCGTACATTTTTTAAAACAACC [XGTACX_site4707]	8.8 ± 0.37
TATATTAAACATATATGTACATATTTTTTCTGAACA [XGTACX_site5390]	8.53 ± 0.24
AATATCAATGATGTTACATGCAAGAGAATCCACAAA [TGCATGCA_site678]	9.07 ± 0.2
ACCAAATCATATATAGCACACAAATTCTTTATTATT [CACACA_site8911]	8.54 ± 0.37
AATATTTTCTGTAATACTTCTTTTCAATTTATTTCG [CACACA_negctrl_site1390]	8.76 ± 0.45
TATTGTTTTTTTGATTTTTTTTTTTTTTTTAATGAA [CACACA_negctrl_site824]	8.14 ± 0.58
ACGTAAAATTATTATTGTACATGTAAATAATTTGGA [XGTACX_site8154]	8.57 ± 0.23
ATTTACATTCACTTATGTACTTATATAATTTTATTT [XGTACX_site8150]	8.77 ± 0.38
TACATATGAAAATACACACATACATACATATATATA [CACACA_site1673]	8.63 ± 0.15
TATATAATATATATTTTATATTTGTAATAATTTTTT [GTGCAC_negctrl_site497]	8.06 ± 0.31
AATGTATAATTATAATGTACAAATAATATATAATAT [XGTACX_site5407]	8.73 ± 0.42
TAACTCCACAAATAATGTACATATATCACTATATTT [XGTACX_site4911]	8.66 ± 0.33
AAGCTTCCTTAATATACACACATATCTGAGTATATT [CACACA_site5939]	8.49 ± 0.57
AGATAAAAAAAGTACACACACACATATATATATATA [CACACA_site3072]	10.2 ± 0.26
CAAAATATAGATGACACACACAAAAAAAGTATATTA [CACACA_site6848]	8.54 ± 0.51
CATTTACCCTTATTAACACACAAAATATAATACGCT [CACACA_site2565]	8.54 ± 0.4
TTCTTGGAATACAAGTGTACTTTATTATTATTATTA [XGTACX_site5997]	8.32 ± 0.4
ATAGAAAGTGACAATTGTACATACATATTATATATA [XGTACX_site4390]	8.71 ± 0.32

Sequence	gcPBM binding intensity (ln)
TTTTTTTTTGCCTACTGTACTATTTTTGAGCTCACC [XGTACX_site7967]	9.02 ± 0.35
AAAAAAAAAAAAAAAAAAAAATTTCAATTATATTGA [GTGCAC_negctrl_site642]	8.87 ± 0.14
AAAATTATAATATATACACACATATATATATTAAAT [CACACA_site473]	8.21 ± 0.35
TTTTTTTTTTTGTTCACACATATACTTTTATTTTGG [CACACA_site4250]	8.72 ± 0.47
AATGCTATCATTAATGCACACATTTAAACTTAATAT [CACACA_site5878]	8.595 ± 0.049
TATAACGCTTGCAGCTGTACAAAAATAATCAAACTG [XGTACX_site2464]	8.78 ± 0.54
AAAAGATTTATACATACACACATATTATAGTCACAT [CACACA_site7701]	8.63 ± 0.36
CAAATTTAAAAAAAATCACACACAGAAAAAAAAAAA [CACACA_site8728]	8.51 ± 0.45
CAAGAAAATGGACACACACACATATATATATATATA [CACACA_site6010]	10 ± 0.47
TACACCCTATTTTTATGTACTTATTTGATTTACACA [XGTACX_site8172]	8.91 ± 0.39
ATATAAATACGGTGTGCACACACATAATATATATAT [CACACA_site2271]	9.38 ± 0.071
GGAAACCTTTTTTTTACACACAATATATTAATACTT [CACACA_site1403]	8.49 ± 0.34
TTTGTTTTAAATATTATACACACGTAAAAGTAGAAT [CACACA_site214]	8.73 ± 0.38
GTGTAATTATCAGCATAAATATGGTACATACATAAA [CACACA_negctrl_site323]	8.64 ± 0.26
TGTATACGCATATGTACACACATATATATGTATATG [CACACA_site3087]	8.65 ± 0.16
TTAAAAGAATATAATGCACACATTATTTTATTTTAT [CACACA_site3772]	8.1 ± 0.2
AAAAAAAACGAACACACACACATACAAAATCTATAT [CACACA_site6795]	8.61 ± 0.6
TATACGAAATTGTGCACACATATATTTATGTATGTA [CACACA_site1509]	8.57 ± 0.2
AATACATAATAACATGTACACACATTCTTCTATAAA [CACACA_site9344]	8.54 ± 0.33
TACCCACGTATATATATACACACTAATATACACCCA [CACACA_site9381]	8.87 ± 0.65
TTAAATGAAAAAATATGTACGTATAATAAGAAATAT [XGTACX_site6619]	8.98 ± 0.38
TATTTTTTCTTAAACACACACATATATATATAGAAT [CACACA_site2836]	8.62 ± 0.53

Sequence	gcPBM binding intensity (ln)
TTTTTTCTTAGTTATACATGCAAAATAAATAAATAA [TGCATGCA_site410]	8.93 ± 0.43
GTATGAGTCGTAGAGTGTACTCTGGAGAAAACTACA [XGTACX_site4942]	8.53 ± 0.33
TATATATTTATTAAATGTACATAACAAAAATGGTAT [XGTACX_site3577]	8.91 ± 0.35
ATTTATATATAATTTTGTACGAAAAAAATAAGGTAT [XGTACX_site3578]	8.9 ± 0.41
AAATAAAGTAAAATATGTACATAAATTAAAACACAT [XGTACX_site8539]	9.13 ± 0.38
TGCATACATAAATGTATATATTAATATATATCATAT [GTGCAC_negctrl_site252]	8.33 ± 0.37
CAGATAGACTTATATGCATGCATTCACCTGCCAACA [TGCATGCA_site158]	9.89 ± 0.18
ATATTACATAATATATGTACACACGCAAATACTTAT [XGTACX_site671]	8.66 ± 0.33
TAAGCATAAATGTATACATGCGATGCATACACATAT [TGCATGCA_site749]	8.25 ± 0.31
ATGAAATTATATTGGGGTACGTCAAAAAAGGAGATA [XGTACX_site7451]	9.1 ± 0.45
GGGTATATATTATTATGTACACATGTATAAAATAAG [XGTACX_site2633]	8.79 ± 0.21
ATATTAAGAATAAACAGTACATATAATAAATACCAT [XGTACX_site5933]	8.52 ± 0.085
AAAAAAAAAAAAATTACACACATACATATAATAATA [CACACA_site8680]	8.38 ± 0.46
TTTGTGTATATATAATGTACATTATATTTTTATTAT [XGTACX_site6506]	8.85 ± 0.41
TATATATATGGACACACACACACATATATATATATA [CACACA_site6121]	10 ± 0.39
AAAAAAAATATACATACATGCATACATAAGTTTCTA [TGCATGCA_site998]	8.49 ± 0.24
TATAAATTTATAAATAGTACATATATTTATATATAT [XGTACX_site6433]	8.38 ± 0.25
ATTAAAAAAAAAGAGCGTACAAATAATTACTTCTTT [XGTACX_site8262]	8.21 ± 0.21
TATAAAATAAGACATGCATGTTATACATATATATTT [TGCATGCA_site156]	8.93 ± 0.39
AAACGTATGTTATTTACACACCCTTCCACTTTTATA [CACACA_site3337]	8.53 ± 0.38
ATGTTTTTTATTCTTCGTACGTATGAACGATAGTGT [XGTACX_site4225]	8.89 ± 0.47
CATTATTATTTTATAACACACACATATATATTATAT [CACACA_site8405]	8.48 ± 0.34

Sequence	gcPBM binding intensity (ln)
ATAAATACATATAAAAGTACACACACACACATATAT [XGTACX_site1744]	9.03 ± 0.42
ATGTGCAAATATTAAAGTACTAAATTTTATTATTTT [XGTACX_site7306]	8.36 ± 0.17
TGTATATGTGAAGCAAGGGATGCGGCAGACATAACA [CACACA_negctrl_site1339]	9.26 ± 0.45
TGAAATTTCAATACATGTACATATAAAAAAAAAAAA [XGTACX_site4424]	8.69 ± 0.49
AAATTAAAAAAAAATAAATAAAAAAAAAAAAAAAAT [CACACA_negctrl_site1611]	8.16 ± 0.54
TTTTTTTTTTCTACAAGTACATATTTTCATTTAACA [XGTACX_site6621]	8.51 ± 0.33
AAAAAAAAAAAAAAATGTACATATATATATTATAAA [XGTACX_site518]	8.39 ± 0.29
TAGTATTTATATGATTAACACACATATGGGTATTAA [CACACA_site8363]	8.21 ± 0.33
ATATACACCTGAGAGGTGCATATATATAAAATTTAC	8.66 ± 0.13
AAAAAAAAAAAAAAAAGTACTCAATAATAATTACAT [XGTACX_site670]	8.63 ± 0.014
CATAATAGTTATAAAATACACACCAGGCATGATAAA [CACACA_site329]	8.36 ± 0.52
ATAATGTTCACATAGGTGCACTAATATAATTATCCA [GTGCAC_site9981]	9.3 ± 0.38
CCGTACAATTTTGTCACACATAAAATACTTATGTAT [CACACA_site4871]	8.34 ± 0.36
AATGTAGTTTATCGATGTACACAAAATAAAGAGAAG [XGTACX_site6956]	9.21 ± 0.31
AATATAAATATAAATATAAATAAATAAATAAATAAA [CACACA_negctrl_site291]	8.61 ± 0.18
GTAATTTTTTTCTATACACACATATATATAATATAT [CACACA_site2655]	8.74 ± 0.32
AAAGTAAAAGGGTTTGGTACACATATAATATATTAG [XGTACX_site6036]	8.77 ± 0.46
AGTAAAAGAAAGCACACACACATGTATTTATGTATG [CACACA_site5998]	8.37 ± 0.42
ATAACTTTTATTTGTACACACATACATCTATATTAT [CACACA_site6595]	9.1 ± 0.39
CATTTATATAAAGAATGTACACACAGAAATGCACAC [XGTACX_site4718]	8.84 ± 0.35
CCTTGTCTTTTTTTTTTTTTTTTTTCTTCTTATTTT [GTGCAC_negctrl_site523]	8.56 ± 0.5
ATAAAATAAGACAAAAAAAAAATATATATATATATA [TGCATGCA_negctrl_site314]	9.99 ± 0.37

Reference: the supplement of paper PMC11417369
